What all share (assay): SPR (Biacore 8K), antibody captured on Protein A chip, RBD as analyte
Assay [1] has as its target SARS-CoV-2 BQ.1.1(Omicron) Spike RBD (SARS-CoV-2 BQ.1.1).
The target of assay [2] is SARS-CoV-2 XBB(Omicron) Spike RBD (SARS-CoV-2 XBB).
The target of assay [3] is SARS-CoV-2(BA.5) Spike RBD (SARS-CoV-2 BA.5).
Assay [4] deals with SARS-CoV-2(BF.7) Spike RBD (SARS-CoV-2 BF.7).

B1: 双特异性抗体蛋白DIA-19 (bispecific antibody)
chain: QITLKESGPTLVKPTQTLTLTCTFSGFSLSTSGVGVAWIRQPPGKALEWLALIYWDNDKRSSPSLNNRLTITKDTSKNQVVLTMTNMDPEDTATYYCAHFFSHYDSSNYYYGSWFDPWGQGTLVTVSSGGGGSGGGGS[sequence of about 100 residues omitted]FTFGPGTKVDIKGGGGSGGGGSGGGGSGGGGSGGGGSEVQLVESGGGVVQPGGSLRLSCAVSGFTFDDYAMHWVRQAPGKGLDWVSLISGDGSYTYYADSVKGRFTISRDSSKNSLYLQMNSLRTEDTALYYCAKAQTPTLWWLQDAFDIWGQGTMVTVSSGGGGSGGGGSEIVLTQSPGTLSLSPGERATLSCRASQSFDSRYLGWYQQKSGQAPRLLIYGASSRATGIPDRFSGSGSGTDFTLTISRLEPEDFAVYYCQQFGDSPFTFGQGTKLEIKGGGGS[sequence of human IgG1 Fc with changes omitted]
With B1, the Kd was 0.203 nM in assay [1], 0.0811 nM in assay [2], 0.0359 nM in assay [3] and 0.045 nM in assay [4].

Usually Kd stands for the constant that tells how readily two partners part at equilibrium. A high value points to a looser complex.

The record behind these values is patent CN117603358A.
